The values below come from paper PMC10726135.

The list shows a part of the results. At the low end of the ranking the order means little. Measured with an extract: partners may take part in the binding.

This assay concerns the target T1, HNF4alpha2 (COS-7 nuclear extract) (UniProt P41235).
T1 sequence: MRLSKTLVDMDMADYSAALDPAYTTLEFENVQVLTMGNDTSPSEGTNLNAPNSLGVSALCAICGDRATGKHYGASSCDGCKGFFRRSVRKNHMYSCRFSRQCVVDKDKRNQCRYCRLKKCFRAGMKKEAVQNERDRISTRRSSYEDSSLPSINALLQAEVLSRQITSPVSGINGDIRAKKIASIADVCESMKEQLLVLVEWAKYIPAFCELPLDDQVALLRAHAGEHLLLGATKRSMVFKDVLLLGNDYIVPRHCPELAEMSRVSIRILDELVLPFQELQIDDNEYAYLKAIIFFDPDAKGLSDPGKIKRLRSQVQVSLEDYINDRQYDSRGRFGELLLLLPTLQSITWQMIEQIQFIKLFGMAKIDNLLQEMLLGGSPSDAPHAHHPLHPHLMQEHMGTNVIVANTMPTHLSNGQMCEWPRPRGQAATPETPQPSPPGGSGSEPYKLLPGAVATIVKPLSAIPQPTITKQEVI
Briefly: protein-binding microarray. To be noted: COS-7 nuclear extract on double-stranded Agilent 4x180k PBM; binding buffer, salt, pH and temperature not given; high values mean tight binding; double strand, one strand shown; sequences stand for … in …GCCTAGGGAGATTAGAGTATCGGTCGA
In the case of GGATTCCTGATGCGTTCAAGGAACAGCCAG, the binding signal (log2 normalized intensity) was -1.14.
The value for GACCCCAGGGCAAAGTGCATTGGAGGCCAG was 3.53; that for GGAAACAATGGCCTTGCTGCGGATCAAAGG was 1.51; that for CTCAATGCAACCAGTTGGTGGGTCAAGGTG was 1.57.
As to AGAGAAAGGACCAGTTGAGTGCAAAGTCCC, the binding signal (log2 normalized intensity) worked out at 2.98.
The same measure for AACAGACAAAATTAAGTGATTTGCCCAATA: -1.17; for GCCAGGCAGAGCAGGTTCTCAGGCCAATCA: -1.21; for TTGAGTCAACACACCTGTGGGTAATTAATC: 1.
For AGATTTATCTCTCCAAGGTACTGTGAACTC, the binding signal (log2 normalized intensity) was 2.5.
The value for GAACTTTGACCACCTACTGTTTGTGCAGAG was 4.13.
The value for ATTTTACAGATGGGGCTGTTTCTTTGTGTG was 1.76; that for GCTAGTAAGGAGCTGAGTCATAGTGGACTT was 3.44.
The value for CATGACTTACTTGGCATCATCAAACAAGAT was -0.901.
As for CCCACTCTCCTCTGCCACTGTATCAGGGAG, the binding signal (log2 normalized intensity) is -1.04.
Consider TGACCATCTGCGAAATGGGGATAAACACCC, for which the binding signal (log2 normalized intensity) was -0.932.
The same measure for CTGGCTTTCATTCCACTGACTTGCAACCTT: 0.803; for GCCCAAGGAGACAGGCTTTGAGCATCGCTG: -1.13; for TGCTCCGGTTCCCAATAAGTTCCTCATTTT: -0.884.
For GTGCCATTGAGATGGTAACCACACCAAGGG, the binding signal (log2 normalized intensity) was -1.1.
The value for ATTGAGGCTTAGCAGCTTGAGGCTCCGATA was -1.05.
Regarding TCCGGCAGCGGCCGGAAAAAGTGAGGAGCA, the binding signal (log2 normalized intensity) came out at 0.752.
Turning to GAGCACAAATAACATTCCTAACATTCTTCC, the binding signal (log2 normalized intensity) was -1.12.
Turning to GGCTGAGTCAGTTTAGTCCTGGATGACCCA, the binding signal (log2 normalized intensity) is 2.71.
The same measure for CATTCCAACCCTGCCATAAACTTCTCCCCC: 4.35; for GGGGACCAGTGGGGGGAAGCTCTGTCACTT: -0.858; for CCCAAGCGAATATGTCAGGCTCAGGGACCC: -1.
Turning to CATGTGGTCCTAAGACTAACCTTTGACCAT, the binding signal (log2 normalized intensity) worked out at 7.89.
The value for CATGACCTTTGGACTGTGACCCCACCTCTC was 7.45; that for GGAAGATGCCTTTTTAGTGCAAGCAAAATT was -0.731.
The same measure for GGTGGAGGCAGCAGCTCCAATTAGGAGATC: -1.13; for AAAGTCCATATTCTTTGTTTGGATGCCAAA: 1.58; for GGACTTTGGCCTTACTTGGCCTGTTTGCTG: 5.51.
The same measure for TCTCTGGCTTGATCCCTGAACTTTGCTCCC: 7.97.
For the sequence CTGTGTTCTCTCAACCTCTCTGGGGGATGG, the binding signal (log2 normalized intensity) amounted to 2.16.
The same measure for TTCTCTCTTGGACTCTTGGACTCCCTGAAG: 4.75.
The same measure for TAACTGTGGGTTCTAGGTAATCACCCTCTC: 0.526; for GTTTGGTGTTTAATTTTCAACCTCTTTCTC: 1.6.
GATTAGAGACCTCTAGACTCCAGCTAAAGC: the binding signal (log2 normalized intensity) was -1.16.
Regarding GAGTTCCAAAGTCCATGTTCATAACTGTTA, the binding signal (log2 normalized intensity) stood at 4.7.
Regarding CTGCTCTCAGCTCCTAAAGGCAGCCCCTTA, the binding signal (log2 normalized intensity) is -1.09.
For GTGGAGACACTGCCAGTGTCTCAGGGAGCT, the binding signal (log2 normalized intensity) was -1.16.
Regarding TTCAAAGAAGCTGTTGGAAAGGGCACTGAT, the binding signal (log2 normalized intensity) came out at 0.625.
Consider AGCATATGTTGACCCGAGTGCCCTTTGGCA, for which the binding signal (log2 normalized intensity) was determined as 4.66.
The same measure for TCTGGCCTGACCCCCTCCTCACCCCACTTT: 5.14; for CGTGGTGGATGGGGGAGGGGACTTCGCTGG: -1.08; for TGTTATCTTTTCAAGGATGTTTATACAGCC: 1.74.
The same measure for AAGTCTTTGTTCCTAGCCACCATGCTCGGC: -1.08.
The value for GATGAATCCACAAAGATAAGAAAAAAACAG was -1.09.
As to TAAACCTAGCTACTAGCCATTTCGGCACCT, the binding signal (log2 normalized intensity) was -1.19.
Take AACTATGTTTATCAGAGCAAAGTTCAATTT: the binding signal (log2 normalized intensity) is 4.17.
Consider CTTTAATTACCTGTTCTAAGCACCTCTGCT, for which the binding signal (log2 normalized intensity) was -1.05.
In the case of ATTCAATGTTTGGGAGCCTTGCACACTCGC, the binding signal (log2 normalized intensity) was -0.773.
As to CCTCCAACTATTGCTCAGCAGGGAGATGGA, the binding signal (log2 normalized intensity) is -1.12.
The value for GAGTTCAGATCACAAAGGAGCTTGTAAGCC was -1.11.
The value for AGCTGTTACTCATTCCCAGGTCGGGCCGGA was -0.477.
As for TTCAGGAAGGCCTGTTAAAAACACGAGCTA, the binding signal (log2 normalized intensity) is -1.18.
The value for CCAGTTCACTCAGTCCACATGGTGTCTTTT was 1.7; that for TTTATTTGAAGAAATGGTGGACTTTGTAGC was 5.6; that for TGGTCATGGAGGGAACAAAACTTCACCTCC was -1.11.
With TTTTCCCCCTTTGAAGTCTGCCCTCCATGT, the binding signal (log2 normalized intensity) came to 4.6.
TTGAACACCACAAGTTTGAACTGCACAGGC: the binding signal (log2 normalized intensity) was -0.333.
The same measure for TCCTTGTTTTTTCATAGGCCTTTATTTGCT: -0.214.
The value for CAAGCAAAAGCCAAGGCATCTGGGGGCTTG was -0.97; that for ATGATAAGTAGACAGATCAGAGAGATTTTC was -1.08; that for TCTGCTGTGCCGGGTATGTGGGGCGTGTGT was 2.58.
As for CAACTAGAGATAAACTTTTGATTGCTTAGG, the binding signal (log2 normalized intensity) is -1.06.
The value for GAAGATGCCACGCAATGCATAGCAGAAACA was -1.12.
With CTATGAATGAAGTCTTTTCCATCGCCCTTA, the binding signal (log2 normalized intensity) amounted to 0.809.
The value for GCTTCCTGGAGAAATGTCCGCCTGGTGTTT was 1.31.
The value for CTCTAGAGTGGTTGCCTGTGAGTCAGGTAC was 1.43.
The value for CAGGCTCATTCTAACCCAAATGCAAATACC was 0.932.
Regarding GATACGGCCTGGACTCCAAGCCCCAAAAAC, the binding signal (log2 normalized intensity) came to 1.45.
The same measure for GAGGTGTTCTCTGGGGTTAGCCAAACAAAT: 1.03; for AAATGAGTTTCATTAGACAGAAACCAAGCT: -1.17; for TGGCCATGAAAGTATCCAGCTCCTCTTCAC: -1.1.
On to CCCGGCAGATCAGGGTCAGGCTGTGGTACG, for which the binding signal (log2 normalized intensity) worked out at 0.662.
The value for AAGTGCCCGGATAAACTTCCAGCCATTTTG was -0.955.
The value for TACTAATTTTGTTTCCTAGTTCAAACAGGC was 0.0737; that for GGACTTCGAATGGTATGCTAGAGTACTTGG was 1.23.
As to CTCCAGAAATACAGAAGCTGCTCTAAGAAT, the binding signal (log2 normalized intensity) is -0.86.
The same measure for CAGCGAAGCTGTGTCAGGCATTGTACTCAC: 1.35; for ATGCCTTAAGGGACCTCTTAGAAAAGTAGA: 0.286; for TGGATAGTGCCTTTTCTAATATCTACATGT: 1.47.
The same measure for AGTCTAACCCAACTAAGAACACAGTCATTT: -0.997; for AAGTCCAATCTTCTGGCCCCATCTATCTAG: 1.52; for CACCTCCTTTGACCTGGGAATTCAAGGAAT: 0.614.
In the case of TCCAGGCTTGGAGCCCCTTTGGAGGGGAAG, the binding signal (log2 normalized intensity) was -1.04.
The value for TACTCACACTCAAGGCAAGAGAGTCATAAA was -1.02; that for TTTCTCCAGTGCCCTTAGGGGCCGCATTGA was 0.73; that for ACTGTTGCATCAAACAGCTTAGGGTTCAAA was 1.64.
The value for AACAAGGTATGAGGCCAGTTTTCCTAAGGG was -1.1.
On to GCTCCAGAGAGCCAGATGAAGCTGCAGCCT, for which the binding signal (log2 normalized intensity) was -1.26.
The value for CAGGACACTTCTGAAAAAAATATTGAACAA was -0.256.
